These results are taken from publication PMC3563642, “MERTK Interactions with SH2-Domain Proteins in the Retinal Pigment Epithelium” (PLoS ONE, 2013).

This assay addresses T1, 6xHis-rMERTK(571–999), full-length human MERTK cytoplasmic domain (human, UniProt Q12866 571-999, autophosphorylated on tyrosine (incubated with ATP/MgCl2); sites Y749, Y753, Y754 were mapped on rMERTK571–864, not on this construct).
T1 construct: Expressed from the pET28a-LIC vector; also called MERTK intracellular domain; source: E. coli BL21 DE3 Gold, purified (Ni2+-NTA, Sephacryl S-200 HR), autophosphorylated with 10 mM ATP, 10 mM MgCl2
T1 sequence (looked up): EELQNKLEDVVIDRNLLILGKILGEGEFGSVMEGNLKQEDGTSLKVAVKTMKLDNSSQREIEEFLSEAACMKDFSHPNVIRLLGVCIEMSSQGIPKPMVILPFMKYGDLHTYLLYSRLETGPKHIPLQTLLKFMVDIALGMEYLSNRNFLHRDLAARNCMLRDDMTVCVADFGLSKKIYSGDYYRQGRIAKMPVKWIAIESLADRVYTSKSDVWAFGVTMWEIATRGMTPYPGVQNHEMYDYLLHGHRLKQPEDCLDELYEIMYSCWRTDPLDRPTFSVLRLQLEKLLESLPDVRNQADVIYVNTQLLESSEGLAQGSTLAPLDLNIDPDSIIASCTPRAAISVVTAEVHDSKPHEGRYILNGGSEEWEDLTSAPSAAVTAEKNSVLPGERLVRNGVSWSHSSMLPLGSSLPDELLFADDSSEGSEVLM
The experiment in a line: pull-down; Ni2+-NTA pull down: GST-rSH2-domain protein (10 µg) incubated with autophosphorylated 6xHis-rMERTK571–999 (10 µg) in 50 mM NaH2PO4, 300 mM NaCl, 10 mM imidazole, 0.1 µM PMSF, 1 h at 4°C, then Ni2+-NTA resin 0.5 h; washes with 50 mM imidazole, elution with 500 mM imidazole; Coomassie-stained SDS gels; negative control omits rMERTK. The settings on record: both partners purified.

B1: SRC GST-SH2 domain fusion protein (domain or fragment)
chain: not shown
notes: pGEX2T construct from a library of SH2 domains; also called rSH2-domain fusion protein corresponding to SRC; recombinant SRC; source: E. coli BL21 DE3 Gold, purified (glutathione-agarose, Sephacryl S-200 HR)
B1: the binding result is “binds”.
